# About 7,500 (2.1%) of roughly 360,000 compounds were called active. The inconclusive results got no clear call from the source; some entries with a clear call stand among them for comparison. Calls follow the shape of the dose curve; as a rule, active = well fitted cell-killing curve with a large enough effect; inconclusive = small, poorly fitted or top-dose-only effect, or effect the other way, or another doubt; inactive = no such curve, though single readings can be large or run the other way. No potency is given beside an inconclusive call; the fits are too rough.
# Assay: qHTS for induction of synthetic lethality in tumor cells producing 2HG: qHTS for the HT-1080-IDH1KD cell line;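 as to activity, negative = toxicity: 0% = DMSO wells and -100% = cell-free medium wells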
# Conditions: HT-1080 IDH1 knockdown viability, ATP luminescence, 48 h; activity, negative = toxicity: at 46.1 µM (top of the series) unless noted
# Procedure, shortened: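 Luminescent ATP read-out (CellTiter-Glo, 10 min at room temperature) after 48 h compound exposure at 37 °C gave viability of IDH1-knockdown HT-1080 cells. Activity was normalised to DMSO and cell-free wells, then fitted as concentration-response curves.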
# Potency is read from the fitted curve at half-maximal effect; tags tell the direction and shape of the fitted curve.
Compound,Potency,"activity, negative = toxicity"
Cc1ccc(N(C(=O)Cc2c[nH]c3ccccc23)C(C(=O)NC2CCCCC2)c2ccco2)cc1 (stereo not drawn),"inconclusive [cytotoxic, single point]",
Nc1nc2ccccc2n1CCOc1ccc(Cl)cc1,"inconclusive [cytotoxic, partial curve]",
O=C(c1cccs1)N1N=C(c2ccc(O)cc2)CC1c1ccccc1 (stereo not drawn),"inconclusive [cytotoxic, partial curve]",
Cc1ccc2c(CN(C)Cc3ccccc3)cc(=O)oc2c1C,"inconclusive [cytotoxic, full curve]",
C[C@H](CO)N1C[C@H](C)[C@H](CN(C)Cc2ccc(-c3ccccc3)cc2)Oc2ccc(NS(=O)(=O)c3ccccc3)cc2CC1=O,"inconclusive [cytotoxic, single point]",
COc1cc(CCC(=O)Nc2cc(C)cc(C)c2)cc(OC)c1OC,"inconclusive [rising, single point]",
FC(F)(F)c1cnc(-c2cnc(-c3cccnc3)nc2)c(Cl)c1,,inconclusive: 9.66%
Cc1ccc(NC(=O)C2CCN(c3ncnc4c3nc3n4CCCCC3)CC2)cc1Cl,inactive,
CC(O)(c1ccccc1)c1nc(-c2cccc(C(=O)O)c2)cs1 (stereo not drawn),"inconclusive [rising, single point]",
Cc1ccc(NNC(=O)c2c(C)noc2C)cc1Cl,"inconclusive [cytotoxic, single point]",
O=C(Nc1ccc(Cl)cc1)NC1CCCCC1Cc1ccco1 (stereo not drawn),"inconclusive [cytotoxic, single point]",
Fc1ccccc1COc1ccc(Br)cc1CNCC1CCCO1 (stereo not drawn),inactive,
COCCNC(=O)CNC(=O)c1nn(-c2ccc(OC)c(Cl)c2)c(=O)c2ccccc12,inactive,
C(=C\c1ccccc1)/CN1CCN(C(c2ccnc3ccccc23)c2nnnn2-c2ccc3c(c2)OCCO3)CC1 (stereo not drawn),"inconclusive [cytotoxic, single point]",
Fc1cccc(/C=N/Nc2nc3ccccc3[nH]2)c1,"inconclusive [cytotoxic, single point]",
COC(=O)c1cccc(N2C(=O)C[C@](Sc3ccc(C)cc3)(C(=O)OC)[C@H]2c2ccccc2)c1,"inconclusive [cytotoxic, single point]",
COc1ccc(NC(=O)c2cc(-c3cc(Cl)ccc3OC)n[nH]2)c(C)c1,"inconclusive [cytotoxic, single point]",
Cc1ccc(S(=O)(=O)N2CCN(C(=O)CNC(=O)c3ccc(Br)o3)CC2)cc1,inactive,
Cc1cccc(C)c1NC(=O)C(c1ccccc1OC(F)(F)F)N1CCN(C/C=C/c2ccccc2)CC1 (stereo not drawn),"inconclusive [cytotoxic, single point]",
COc1cccc2cc(C(=O)Oc3ccccc3)c(=O)oc12,"inconclusive [cytotoxic, partial curve]",
Cc1cc(C)cc(NC(=O)Cn2c(=O)oc3cc(S(=O)(=O)N4CCC(C)CC4)ccc32)c1,"inconclusive [cytotoxic, single point]",
O=C(Cc1cccs1)Nc1ccc(-c2nc3ccccc3[nH]2)cc1,"inconclusive [cytotoxic, single point]",

Compound,Potency,"activity, negative = toxicity"
CCC1=C(OC(=O)N(CC)CC)N2C(=O)OC(=NCCc3c[nH]c4ccccc34)[C@]2(C)[C@H]2C1=CC[C@H]1C(=O)N(CC(=O)OC)C(=O)[C@H]12,inactive,
O=[N+]([O-])c1ccc(NS(=O)(=O)c2ccc(Cl)c(Cl)c2)cc1,active: 18.4 µM,
Cc1ccc(NC(=O)CSc2nc3ccccc3c(=O)n2Cc2cccs2)cc1,inactive,
CCOc1ccc(NC(=O)CC2S/C(=N/N=C3CCCCCC3)NC2=O)cc1 (stereo not drawn),inactive,
COc1ccc(-n2cc(CN(C)C3CCOCC3)c(-c3cccc(F)c3)n2)cc1,"inconclusive [cytotoxic, single point]",
O=C(O)c1ccc(N/N=C/c2cn(Cc3ccccc3F)c3ccccc23)cc1,"inconclusive [cytotoxic, single point]",
COc1ccccc1NC1=C(Cl)C(=O)OC1OC(=O)c1ccco1 (stereo not drawn),"inconclusive [cytotoxic, single point]",
Oc1ccccc1C1CCCCC1c1ccccc1 (stereo not drawn),"inconclusive [cytotoxic, single point]",
Cc1ccc2nc(N(CCCN(C)C)C(=O)c3ccc4ncsc4c3)sc2c1,"inconclusive [cytotoxic, single point]",
C#CC[N+]1(CC#Cc2cccc3ccccc23)CCOCC1,inactive,
O=C1C(=Cc2ccccc2Cl)CCc2ccccc21,"inconclusive [cytotoxic, single point]",
Cc1[nH]nc(-c2ccc(O)cc2O)c1-c1nc2ccccc2s1,"inconclusive [cytotoxic, partial curve]",
O=C(/C=C/c1ccccc1)c1ccccn1,"inconclusive [cytotoxic, single point]",
C=C1C(=O)[C@]23C[C@H]1CCC2[C@@]1(C)C(C[C@@H]3O)[C@](C)(C(=O)OC)CC[C@@H]1OC(C)=O (stereo partly drawn),active: 1.16 µM,
COc1ccc(C2C=CC(=O)CC2)c(OC)c1 (stereo not drawn),"inconclusive [cytotoxic, single point]",
CC(=O)c1cccc(NS(=O)(=O)c2cc3c(cc2C)NC(=O)CO3)c1,inactive,
Cc1cnc(C=O)c2cccc([N+](=O)[O-])c12,"inconclusive [cytotoxic, single point]",
CC(=O)Oc1ccc(OC(C)=O)c(SCCCCCN2CCOCC2)c1,"inconclusive [cytotoxic, single point]",
CCOc1cc(CNCCCN2CCOCC2)cc(Br)c1OCc1ccccc1Cl,active: 8.2 µM,
COc1cc(/C=N/Nc2nn3cnnc3c3ccccc23)ccc1O,active: 5.62 µM,
CN1CCN(C(=O)c2ccc3c(c2)NC(=O)/C(=C/c2ccccc2)S3)CC1,"inconclusive [cytotoxic, single point]",

# — PubChem BioAssay AID686971 (National Center for Advancing Translational Sciences (NCATS), 2013)
